We go through 167 variants from the RNAGym collection of RNA variant scans (doi:10.7554/elife.90254).

Read counts are not given, so values of variants with three or more changes are uncertain.

The labels stand for the following.
B1: LINE1-full (parent)
chain: UACGUAGGUGGUUUUCCCCUGAUAGUGCUAAGGGGGCCUGGAAGUUUGGACUGGGCAGAGCUCAACACAGCGUGGCAAAGUGGCUGUGGCUAGACUGCCUCUCUGGAUUCCUCGUCACUCAGCAGGGCAUCUCUGAGAGAAAUGCC

The variants in this series derive from B1. Kind of series: self-cleavage, relative activity (ratio to wild type); higher = more cleavage; in vitro, sequencing; the parent is a self-cleaving ribozyme.
For the variant U47C A50G U73C A142G, the self-cleavage amounted to 1.15.
In the case of U47C A50U A107C U130C, the self-cleavage came out at 1.67.
On to U45C A69G A77U, for which the self-cleavage was found to be 0.79.
The value for U46C A121G U130C was 1.44; that for U45G U73G A92U was 0.16; that for U47A U85G A107U was 0.1.
The value for U46C U47A G88U U119C was 0.01.
The value for U45C U52A G82U U96A U130C U143C was 0.
Consider U47G A136U U143C, for which the self-cleavage amounted to 1.21.
Take U47C A94C U115A: the self-cleavage was found to be 0.06.
The value for U47C U62C A77G U96A A138G was 0.2.
The value for U47A U62C G88A was 0.02.
On to U47C U52G A94G A141G, for which the self-cleavage amounted to 0.66.
The result for U47A A78G U109C A124G reads 0.66; that for U46C A64G U132C, 0.2; that for U45C A77U A94G, 0.42.
Regarding U47C U52C A92U A142G, the self-cleavage came to 1.84.
In the case of U47A A124G U134A A140G, the self-cleavage was 0.07.
The result for U45C U47C C71A U81A reads 0.39.
For the variant U46A A57G U104C, the self-cleavage came out at 2.63.
On to U45C U46C U85A U143C, for which the self-cleavage turned out to be 0.14.
In the case of U46C A129G A136U, the self-cleavage is 1.56.
Regarding U46C U62C A140G U143C, the self-cleavage worked out at 0.5.
The result for U47C G74A A79G U109C reads 1.15.
Turning to U46C A50G U109C, the self-cleavage turned out to be 0.
In the case of U47A U73A A140G U143C, the self-cleavage was 1.34.
The result for U45C U47A U143C reads 1.36; that for U46A U62A A92G, 0.07; that for U47C A129G U143A, 2.45.
For U45C U62C A77G C101A, the self-cleavage stood at 0.02.
With U45G U81G G86A, the self-cleavage is 0.06.
For U46A A50G A64G U73C A138G, the self-cleavage was 0.
In the case of U46C U91C U119C, the self-cleavage amounted to 0.66.
The value for U45C U62C A92U was 0.11; that for U47A A65G G74A A117G was 0.
The result for U46A A107U C133A reads 1.41; that for U45C G60A U143C, 0.05; that for U47A G55U A59G A69U A77G U130C, 0.04.
U47A U134C A138G: the self-cleavage was 1.17.
The value for U46C U100A U109C U130C was 0.15; that for U47A A77G G86A was 0.08; that for U46A U73C U100C was 2.3.
The result for U46C U73C A121G reads 1.02; that for U47A G53U A64G C128U, 0.07.
For the variant U46G A67G A141G U143A, the self-cleavage was found to be 0.75.
Regarding U46C A77U U132C, the self-cleavage was found to be 1.17.
The result for U45C U112A A121G reads 2.96; that for U46C U62C A64G, 0; that for U47A U73C U108C U134C, 1.67.
The result for U47C U112A A124G reads 1.23.
The value for U45C U62C C146U was 0.09; that for U46A U73A U104G A136G was 1.59; that for U46C U119A U130A was 0.59.
Take U46C U73A G97U: the self-cleavage was 0.12.
On to U45C U96C A107G, for which the self-cleavage came out at 0.21.
Turning to U45C U47C A57U, the self-cleavage was 0.14.
U47A U62C A67U U102A: the self-cleavage turned out to be 0.03.
The value for U47A G53A A78G U96A was 0.06; that for U46A U62C A136G was 0.03.
For U47C U115A C123U, the self-cleavage was 0.99.
With U46A U85A U96A, the self-cleavage was found to be 0.06.
For U45C A67G U130C, the self-cleavage is 0.
The value for U47C C123A U132C was 1.04; that for U46C U73C A78G was 0.61.
The result for U47A A141G A142G reads 1.33.
The result for U46C A107G U119A reads 1.02; that for U45C G54A A69G A107U U112A, 0.32; that for U45C C66A U115C A136G A138G, 0.11.
On to U46G G55A C71A, for which the self-cleavage worked out at 0.02.
The result for U47A A57U A65G U119A A136G reads 0.03.
The result for U46A A77G U85C A94G U130C reads 0; that for U47A U104C A129G, 2.19.
For U47C G48U A124G, the self-cleavage was 0.52.
Take U46C G75A A138U: the self-cleavage stood at 1.46.
The result for U45C A67G C98G A140G reads 0; that for U46C C90A A117G, 0; that for U47A U62C U85C U109C A129G, 0.
Regarding U46A U109C A129G, the self-cleavage was 1.18.
With U45C U112C A117G U134A, the self-cleavage was determined as 1.41.
For the variant U46A A92G A94G U108C A136U, the self-cleavage was 0.
As to U46C U47A A92U A138G, the self-cleavage stood at 1.13.
The value for U47A U96C G122C A129G was 0.09; that for U45C A65G A140G was 0.
U46C G58A A67G U81C: the self-cleavage is 0.72.
For U47C U52A U73C U115A, the self-cleavage came out at 0.88.
Consider U46C U52A U62C A69C A124G, for which the self-cleavage was 0.29.
The value for U45C U130C A140G was 1.13; that for U46A U52A U87C was 0.18.
For U46G U91A A121G, the self-cleavage amounted to 0.54.
The result for U47C A57U A138G reads 0.29.
The result for U47A A64U A92U reads 0.11; that for U46A A57C A79G A117C, 0.16; that for U47A G139A A140G, 1.74.
U47A U115C U130C: the self-cleavage came to 1.97.
The result for U46C U104A A117U A142G reads 1.88; that for U47A U62C U100A U104C, 0.03; that for U46C A107U U112A, 1.84.
Regarding U46C A77U A140G U143A, the self-cleavage is 1.12.
As to U47C A69C U104C, the self-cleavage was determined as 1.53.
As to U46A U73A U85C C101A A121U, the self-cleavage came out at 0.11.
The result for U47C U112A G125A reads 1.25.
Consider U46C A57U G144A, for which the self-cleavage came to 0.14.
The result for U46G G82U U130C reads 1.44; that for U47A A65G U96A A138G, 0.02; that for U47C A138G U143A, 1.44.
The result for U47A A65G U109C U119A reads 0.05; that for U47C U109C U115A C118U G125U, 1.33.
The value for U47A A79G U143G was 0.96; that for U47C U100A U112C was 1.47; that for U47C U108C A141G was 1.39.
Turning to U47A A121G A138U, the self-cleavage came out at 1.37.
With U46C A77U A121G A129C, the self-cleavage stood at 2.07.
Take U47G G48U A67G G80U U81C U115C: the self-cleavage came to 1.84.
The value for U46C C76U A77G U132C A138G was 2.55.
For the variant U47C A92U G93A, the self-cleavage turned out to be 0.05.
The value for U47C A64U A117G A140U was 1.01.
The value for U46A U96C U143A was 0.05.
For U45C U96A U130C, the self-cleavage is 0.07.
With U45C A65C G86A U132C A136C, the self-cleavage was found to be 0.08.
The value for U45C A129G U132C was 1.39.
On to U45C G58U A69G G72A G126A, for which the self-cleavage amounted to 0.04.
As to U46C G60U A67G, the self-cleavage was 0.
Regarding U45G U47C A136G, the self-cleavage came out at 1.23.
The result for U46C G105U C128A reads 1.1.
In the case of U46A U91C U130C U134A, the self-cleavage was found to be 0.
The result for U45C A124G A140G reads 0.13; that for U47C A57G G70A C76U A78G, 0.12; that for U46C A129G U130C, 0.
U46C A77U U109C U134A: the self-cleavage was determined as 0.
On to U46C U73A U100C A121G, for which the self-cleavage was 2.87.
As for U47C U73A A78G, the self-cleavage is 0.27.
As to U46A U108C U143C, the self-cleavage was 1.73.
Consider U45C A77U U132C A138G A141G, for which the self-cleavage was 0.82.
The result for U46C U102C A117G reads 0.66.
The value for U47C A59U U73A A121U U134C A140G was 1.4; that for U46C G88C U104C A124G was 0.39.
The result for U47A A77U U134C reads 1.56.
For the variant U46G A59G U100C A124G A140G, the self-cleavage amounted to 0.
The result for U46A A64G U108C reads 0; that for U46C A57G A69G, 0; that for U46C A57G A67U U143C, 0.
The result for U47A U102C U115C U132C reads 2.04.
U47A A107G A138G A142G: the self-cleavage is 0.32.
The result for U47A C99A U108A reads 0.63; that for U45G C51U G105A, 1.83; that for U46C A78U G106A, 1.46.
The result for U45G U62G A64G reads 0; that for U45C U115C A129G, 2.12; that for U46A A64C A142C, 0.35.
In the case of U47C U87C C98U U104C A129G, the self-cleavage was determined as 0.
With U47A A65G G80U U100C A142G, the self-cleavage came out at 0.03.
The value for U45C C120A A138U was 0.97.
Regarding U46A G80U U81C A107G, the self-cleavage is 0.73.
The value for U47A A65G U85A was 0.01; that for U47A A79G C133U U143A was 1.1; that for U47C A79G G125A was 1.17.
For the variant U47C U102A U134C A138G, the self-cleavage was 0.92.
The result for U46C A59U A77G U100C U132C reads 0.
Take U45C A129G A138G: the self-cleavage came to 1.97.
Regarding U46C U47C C98A U134A, the self-cleavage amounted to 0.32.
On to U45C A67G A78G A94U, for which the self-cleavage worked out at 0.
The value for U47C A50U A64U U100A was 0.44; that for U46C G82A U112C A142G U143G was 2.6; that for U47C A64G A124U was 0.52.
The result for U46C U102C A140G reads 2.15.
The value for U46C G88A A94G U100C A121U A136G was 0.07; that for U46A U81A C98U was 0.34.
